Measured values reported in PMC7819943, “Rice protein-binding microarrays: a tool to detect cis-acting elements near promoter regions in rice”.
This is one part of the list.

Target: T1, OsWOX13 (Oryza sativa, UniProt Q5QMM3 1-267)
T1 sequence: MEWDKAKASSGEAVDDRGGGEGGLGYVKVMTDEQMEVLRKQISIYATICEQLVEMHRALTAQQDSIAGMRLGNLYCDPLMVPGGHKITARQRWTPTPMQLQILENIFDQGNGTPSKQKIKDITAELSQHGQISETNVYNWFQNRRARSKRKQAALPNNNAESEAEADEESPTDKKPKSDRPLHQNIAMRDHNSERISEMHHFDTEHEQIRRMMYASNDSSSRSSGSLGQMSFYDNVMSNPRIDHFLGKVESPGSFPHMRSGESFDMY
Experiment: protein-binding microarray (RPBM); PBS, 2% BSA, 51.3 ng/ul salmon testes DNA, 50 uM zinc acetate, 200 nM TF, 25 C, 1 h; high values mean tight binding
Details: protein: recombinant; tags: N-terminal polyhistidine and DsRed monomer fusion (pET32a); label: CyDye5-dUTP incorporated in the synthesized complementary strand; 3' TTTTT single-stranded linker to array surface; dsDNA, one strand shown
Summary of the method: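 The binding signal for each feature is its fluorescence intensity in arbitrary units. An Axon 4000B scanner was used to read a custom Agilent array that had been made double-stranded with Cy5-dUTP primer extension, blocked with 2% BSA, incubated at 25 °C for 1 h with 200 nM protein in PBS, 2% BSA, salmon testes DNA and 50 µM zinc acetate, and washed. The protein was an N-terminal polyhistidine–DsRed transcription factor fusion from E. coli BL21-CodonPlus, purified on Ni–NTA.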

Question: “ATAAACCATTAGTAATTGACCTCACAGGTATAAAATCCTGCGGAGTCACCTAGTGCAG” was tested. Which binding signal did it give?
Answer: 7560 fluorescence intensity (a.u.)

Question: How did the binding signal turn out when “TGTCACATTCAATCTATTAGGCCATGTCTAACGCATCATGCGGAGTCACCTAGTGCAG” was run?
Answer: 11000 fluorescence intensity (a.u.)

Question: Which binding signal does the source give for “CTTGATTGTTGCTGGATAAATAGCTTCTATAACTGCAAGACGGAGTCACCTAGTGCAG” here?
Answer: 46200 fluorescence intensity (a.u.)

Question: For “ATCTGAAAGATTGAGTTTTGAGTCTGAACTCTGAACTCTGCGGAGTCACCTAGTGCAG”, which binding signal is on record?
Answer: 9720 fluorescence intensity (a.u.)

Question: How did the binding signal turn out when “GAATAGACTTAATAAATGAACACAAATATATAGATCATTTCGGAGTCACCTAGTGCAG” was run?
Answer: 4140 fluorescence intensity (a.u.)

Question: How did the binding signal turn out when “TATGAATTTAAACTTAATTTATTTGTTTGCATACTGATGCCGGAGTCACCTAGTGCAG” was run?
Answer: 17000 fluorescence intensity (a.u.)

Question: Which binding signal does the source give for “TTAAAATTTAAATTTTGACCATTCAGATAACTAAAAGGAGCGGAGTCACCTAGTGCAG” here?
Answer: 15900 fluorescence intensity (a.u.)

Question: How did the binding signal turn out when “TTTGGTTGGATTGGATTGGATTGGATTGGCTGCTTCCCTGCGGAGTCACCTAGTGCAG” was run?
Answer: 25000 fluorescence intensity (a.u.)

Question: With “GAATAATTAAGATTTAAAGATATCTTTTGGTGGGTGGGAACGGAGTCACCTAGTGCAG” as the sequence, how does the binding signal read?
Answer: 23400 fluorescence intensity (a.u.)

Question: “CGGGTTACAATAAATCACGTCATAGATAGGGCTCAAGAAACGGAGTCACCTAGTGCAG” was tested. Which binding signal did it give?
Answer: 3240 fluorescence intensity (a.u.)

Question: “GGATATCCGTGATTATTTCATGATTATGACTTCTAGATGGCGGAGTCACCTAGTGCAG” was tested. Which binding signal did it give?
Answer: 19400 fluorescence intensity (a.u.)

Question: How did the binding signal turn out when “ATGATTTATAATTCCGGCGAATGATCATTTCTCTTTTGCACGGAGTCACCTAGTGCAG” was run?
Answer: 32600 fluorescence intensity (a.u.)

Question: How did the binding signal turn out when “ATTGTATAATTTGTACAAGTTAGCAGTTTAATAATGCATTCGGAGTCACCTAGTGCAG” was run?
Answer: 4120 fluorescence intensity (a.u.)

Question: How did the binding signal turn out when “ATACTTTGACCATCAATTTATCCCATGTTATGTTTCCGATCGGAGTCACCTAGTGCAG” was run?
Answer: 7180 fluorescence intensity (a.u.)

Question: “CCTTTTAATTGAAAAGCTCCTTATTGGCTTCCCACCTAAGCGGAGTCACCTAGTGCAG” was tested. Which binding signal did it give?
Answer: 46900 fluorescence intensity (a.u.)

Question: Which binding signal does the source give for “AGCCTAATTAATCCGTCATTAGCAAATATTTACTGTAGCACGGAGTCACCTAGTGCAG” here?
Answer: 28400 fluorescence intensity (a.u.)

Question: For “ACATGATTAGAGCAACAAGGCTGTGTGACCCACCCGTGGCCGGAGTCACCTAGTGCAG”, which binding signal is on record?
Answer: 30300 fluorescence intensity (a.u.)

Question: How did the binding signal turn out when “TGCACAAAATCACCACCGAATGATTTGAATTCAAGCATGACGGAGTCACCTAGTGCAG” was run?
Answer: 10300 fluorescence intensity (a.u.)

Question: For “ACACTGACAGAGCCGACGCCGACGGACACCAAACTTCCCTCGGAGTCACCTAGTGCAG”, which binding signal is on record?
Answer: 3480 fluorescence intensity (a.u.)

Question: With “ATTTAAATCTAATTTTAACTCTCCACCTGGTTGCAGTCGGCGGAGTCACCTAGTGCAG” as the sequence, how does the binding signal read?
Answer: 10800 fluorescence intensity (a.u.)

Question: Which binding signal does the source give for “GCAAATTGAAAATTAAGGATAAACTAGTTTTAGACCATGCCGGAGTCACCTAGTGCAG” here?
Answer: 35200 fluorescence intensity (a.u.)

Question: For “CTGATTAGTGATTTATTTAATTTGAGGAATCATTTTGGCACGGAGTCACCTAGTGCAG”, which binding signal is on record?
Answer: 64900 fluorescence intensity (a.u.)

Question: With “CGCTGCAAATAAATTGGGTCGACTTGTACCGCCGGTTAATCGGAGTCACCTAGTGCAG” as the sequence, how does the binding signal read?
Answer: 3450 fluorescence intensity (a.u.)

Question: For “ACAATGACTGCGACTTACTTCGTCCTCCCTCGGCGCGATACGGAGTCACCTAGTGCAG”, which binding signal is on record?
Answer: 4620 fluorescence intensity (a.u.)

Question: With “TGTTAACCAGATTTATTATATTTGAAAATGTCACCTCCAACGGAGTCACCTAGTGCAG” as the sequence, how does the binding signal read?
Answer: 8160 fluorescence intensity (a.u.)

Question: Which binding signal does the source give for “GGAATTACTAGAAATTTTGTGACTGAAATACACTAGATTCCGGAGTCACCTAGTGCAG” here?
Answer: 4310 fluorescence intensity (a.u.)

Question: “AAAGCTAATCAGTTGAGTTCATTGGTTGACTGACTCGATACGGAGTCACCTAGTGCAG” was tested. Which binding signal did it give?
Answer: 10900 fluorescence intensity (a.u.)

Question: How did the binding signal turn out when “TTGTTTGCCAATCAATCACAGACTTCATTGCGTGATCTACCGGAGTCACCTAGTGCAG” was run?
Answer: 36300 fluorescence intensity (a.u.)

Question: How did the binding signal turn out when “TGATTGCAATTAAAATGGAACGAAGTGGAACGAAGGGAGTCGGAGTCACCTAGTGCAG” was run?
Answer: 6270 fluorescence intensity (a.u.)

Question: For “AACGCTGATAATCAAACGCTACATTACAGACACTAACAGCCGGAGTCACCTAGTGCAG”, which binding signal is on record?
Answer: 3500 fluorescence intensity (a.u.)

Question: How did the binding signal turn out when “TCAATGATTAATTTACTAGTGCCATCATGGTCATGAGGAACGGAGTCACCTAGTGCAG” was run?
Answer: 46200 fluorescence intensity (a.u.)

Question: Which binding signal does the source give for “TGACATAATTAGTCCTCAACCAAACAAACCCTTAATTACCCGGAGTCACCTAGTGCAG” here?
Answer: 21400 fluorescence intensity (a.u.)

Question: How did the binding signal turn out when “ATTAATTAGGGGTATTTTGGTTCTTTTATATTCACCTCGACGGAGTCACCTAGTGCAG” was run?
Answer: 25600 fluorescence intensity (a.u.)

Question: How did the binding signal turn out when “ACATATGTGATTAGTATCAGTTCATCAGTAGTCTTCCAATCGGAGTCACCTAGTGCAG” was run?
Answer: 18500 fluorescence intensity (a.u.)

Question: For “GCGGTGACGAGGATAATTTGTCTTCAATAGCTAGACTTTTCGGAGTCACCTAGTGCAG”, which binding signal is on record?
Answer: 14400 fluorescence intensity (a.u.)

Question: “TAGCACATGATTAATTGAGTATTAATTATTTTAAACTTTACGGAGTCACCTAGTGCAG” was tested. Which binding signal did it give?
Answer: 21300 fluorescence intensity (a.u.)

Question: How did the binding signal turn out when “ATTCTAGATAAATTGCCACCGGGTCCATATATTAGTTGATCGGAGTCACCTAGTGCAG” was run?
Answer: 3890 fluorescence intensity (a.u.)

Question: How did the binding signal turn out when “CTGCTAATCACGTTTTAGTTCGAATTAATGCCATCCACTCCGGAGTCACCTAGTGCAG” was run?
Answer: 18000 fluorescence intensity (a.u.)

Question: Which binding signal does the source give for “GTTTAATTTTATTGGGTGCATGTATTGTATTAGTTGAGATCGGAGTCACCTAGTGCAG” here?
Answer: 14000 fluorescence intensity (a.u.)

Question: How did the binding signal turn out when “GGATGAGACACGCCGACGCGTCATGCCGCCTCAAAGGCCGCGGAGTCACCTAGTGCAG” was run?
Answer: 3410 fluorescence intensity (a.u.)

Question: Which binding signal does the source give for “ATGCTTGTAATTGTCAAGGTGTTAACTGTACGCGGCATATCGGAGTCACCTAGTGCAG” here?
Answer: 5350 fluorescence intensity (a.u.)

Question: For “CTGATCTTCCTAATTATTTTGTGACAGATGATGGGACGGACGGAGTCACCTAGTGCAG”, which binding signal is on record?
Answer: 13000 fluorescence intensity (a.u.)

Question: “GCCCCTCGCTTTTGATTAGTTACGTGCCGGTCCCCACTACCGGAGTCACCTAGTGCAG” was tested. Which binding signal did it give?
Answer: 5220 fluorescence intensity (a.u.)

Question: For “GTATTTAATGAAATTTTATCTGGCCCCATTTTATATTGGACGGAGTCACCTAGTGCAG”, which binding signal is on record?
Answer: 6970 fluorescence intensity (a.u.)

Question: With “ATACAATTAATGCTTTTATAATTTTAGATAATGAATTAAACGGAGTCACCTAGTGCAG” as the sequence, how does the binding signal read?
Answer: 10300 fluorescence intensity (a.u.)

Question: With “AGTTTTATGATAAATTATATTGTAATGTATCGATTCTGTACGGAGTCACCTAGTGCAG” as the sequence, how does the binding signal read?
Answer: 6560 fluorescence intensity (a.u.)

Question: Which binding signal does the source give for “TTACCTTTCAGTCAACCGACGAGATTGGGCGGTGGCGGCACGGAGTCACCTAGTGCAG” here?
Answer: 3410 fluorescence intensity (a.u.)

Question: For “GAGATTCAATCACCACCTTAATGTTTCACAGCTACTCCCTCGGAGTCACCTAGTGCAG”, which binding signal is on record?
Answer: 18400 fluorescence intensity (a.u.)

Question: “CTGCTTTTCATAGATTGAATGTTGCATACTGTATATGGGGCGGAGTCACCTAGTGCAG” was tested. Which binding signal did it give?
Answer: 8660 fluorescence intensity (a.u.)

Question: With “GTAATTAACTAATTTATTACAAATTGAAGAAATAATTGTACGGAGTCACCTAGTGCAG” as the sequence, how does the binding signal read?
Answer: 23800 fluorescence intensity (a.u.)

Question: For “TTTAATTACTAATCAATTTCATACATTCATATAGTTTATTCGGAGTCACCTAGTGCAG”, which binding signal is on record?
Answer: 55600 fluorescence intensity (a.u.)

Question: “AGCATCATCTAAATTGCATTTTGTATTCTTCCAAGTTACTCGGAGTCACCTAGTGCAG” was tested. Which binding signal did it give?
Answer: 3530 fluorescence intensity (a.u.)

Question: How did the binding signal turn out when “TCCAAATCATCCATAGTTAATTTAATAGGCAATTCATACACGGAGTCACCTAGTGCAG” was run?
Answer: 8250 fluorescence intensity (a.u.)

Question: Which binding signal does the source give for “CTAAACTAATCAGGCGCCACGTCGGATGTGCTTACCACGTCGGAGTCACCTAGTGCAG” here?
Answer: 7520 fluorescence intensity (a.u.)
